Out of some 330,000 compounds screened, about 4,200 (1.3%) were called active. This list was built around the results that the source calls inconclusive (neither active nor inactive); the mix of calls is not that of the screen. Calls come from the whole dose curve; as a rule, active = well fitted activation curve with a large enough effect; inconclusive = small, poorly fitted or top-dose-only effect; inactive = no such curve, though single readings can be large or run the other way. Potencies of inconclusive entries are doubtful fits and often do not repeat.
Test: qHTS screen for small molecules that induce genotoxicity in human embryonic kidney (HEK293T) cells expressing luciferase-tagged ELG1; note: nearly all actives have a fitted effect of over 60% in size
Conditions: HEK293T ELG1-luciferase reporter, luminescence, 16 h; series mostly up to 46 µM
Summary of the method: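 HEK293T cells expressing luciferase-tagged ELG1 were exposed to compound or DMSO vehicle for 16 hr at 37 °C and 5% CO2. Luciferase activity was then measured with ONE-Glo after 30 min at room temperature.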
Potency is the fitted concentration of half-maximal effect; tags give direction and shape of the fitted curve.

Row | Structure (SMILES) | Potency
1 | COc1cccc(NC(=S)N2CCCN(Cc3ccc(F)cc3)C2)c1 | inconclusive: 5.8 µM [activator, partial curve, poor fit]
2 | Nc1nc2c(s1)CC(c1ccccc1)CC2 (stereo unspecified) | inactive
3 | CN(C)c1ccnc(N(Cc2ccccc2)Cc2ccccc2)c1C#N | inconclusive: 16.4 µM [activator, partial curve, poor fit]
4 | COc1cccc(-c2cc(C(=O)N3C(C)CCCC3C)no2)c1 (stereo unspecified) | active: 7.08 µM
5 | CN(CCOc1ccc(Cl)cc1)C(=O)Cc1ccc(S(=O)(=O)N2CCOCC2)s1 | inactive
6 | CCCOC1CCCN(C(=O)c2ccc3oc(C(C)C)nc3c2)C1 (stereo unspecified) | inconclusive: 16.4 µM [activator, partial curve]
7 | Cc1cc(C)cc(C(=O)N2CC(=O)Nc3ccccc32)c1 | inconclusive: 6.51 µM [activator, full curve, poor fit]
8 | Cc1ccc(-n2c(C(C)C)nc3oc4ccccc4c(=O)c3c2=O)cc1 | inconclusive: 14.6 µM [activator, partial curve]
9 | Cc1cccc(NC(=O)c2c(O)c3ccccc3[nH]c2=O)c1 | inconclusive: 2.31 µM [activator, full curve]
10 | Cc1nc(N2CCN(C(=O)c3ccco3)CC2)c2c3c(sc2n1)CCCC3 | inactive
11 | CCOC(=O)c1ccccc1NC(=S)N1CCN(C(=O)c2ccco2)CC1 | inactive
12 | CC(C(=O)Nc1ccc(C(N)=O)cc1)N1C(=O)c2ccccc2S1(=O)=O (stereo unspecified) | inactive
13 | Nn1c(SCC(=O)NC(=O)NCc2ccco2)nnc1-c1ccc(OC(F)F)cc1 | inactive
14 | CC(C)C(=O)Nc1cccc(-c2cnc3ccccc3n2)c1 | inconclusive: 18.4 µM [activator, partial curve]
15 | Cc1cccc(-n2ncc3c(NC(C)C)ncnc32)c1 | active: 2.59 µM
16 | CCOC(=O)c1sc(N(Cc2ccccc2)C(=O)COC(=O)c2ccccc2O)nc1C | inconclusive: 29.1 µM [activator, partial curve, poor fit]
17 | Cc1ccc(CNC(=O)c2nccnc2C(=O)O)cc1 | inactive
18 | CCOC(=O)Cc1c(C)nc2cc(-c3ccc(Cl)cc3)[nH]n2c1=O | inconclusive: 32.6 µM [activator, partial curve, poor fit]
19 | CSc1nc2ccc(NC(=O)c3ccc(Cl)s3)cc2s1 | inconclusive: 8.2 µM [activator, partial curve]
20 | CC(=Nc1cccc(C)c1)c1sc2ccccc2c1O | active: 9.2 µM
21 | Cc1ccc(NC(=O)Cc2ccc(-c3ccccc3)cc2)nc1 | inconclusive: 29.1 µM [activator, partial curve, poor fit]
22 | CC(=O)c1cc(C#N)c(SCc2ccccn2)nc1C | inconclusive: 16.4 µM [activator, partial curve, poor fit]
23 | Cc1sc(NC(=O)c2ccco2)c(CN2CCN(Cc3ccccc3)CC2)c1C | inactive
24 | CCC(CC)C(=O)Nc1cccc(C(=O)Nc2nccs2)c1 | inactive
25 | C/C(=N\NC(=O)COc1ccccc1[N+](=O)[O-])c1cccs1 | inconclusive: 10.3 µM [activator, partial curve, poor fit]
26 | Brc1cccc(-c2nnc(-c3ccccc3)o2)c1 | active: 3.26 µM

Row | Structure (SMILES) | Potency
27 | O=C(Nc1cc(-c2ccccc2)[nH]n1)c1ccccc1F | inconclusive: 3.66 µM [activator, full curve]
28 | Cc1cccc(NC(=O)c2sc3nc(N)c(C#N)cc3c2N)c1 | inconclusive: 8.2 µM [activator, partial curve, poor fit]
29 | CCN(CC)S(=O)(=O)c1ccc(=O)[nH]c1 | inactive
30 | O=C(CO/N=C/c1cccc([N+](=O)[O-])c1)Nc1ccc2ccccc2c1 | inconclusive: 23.1 µM [activator, partial curve, poor fit]
31 | COc1ccc(C(C)(C)C)cc1NC(=O)CCn1[nH]c(=O)ccc1=O | inactive
32 | Cc1ccc(-c2nn3c(C)nnc3c3ccccc23)cc1S(=O)(=O)NCc1ccco1 | inconclusive: 20.6 µM [activator, single point]
33 | OC1(c2cccc(C(F)(F)F)c2)CCN(Cc2nnnn2Cc2ccccc2)CC1 | inactive
34 | COc1ccccc1C(=O)NC(=O)COC(=O)c1ncc(Cl)c(Cl)c1Cl | inactive
35 | Cc1ccc2cn[nH]c2c1[N+](=O)[O-] | inactive
36 | Cc1ccc(S(=O)(=O)NCC2CCCO2)cc1[N+](=O)[O-] (stereo unspecified) | inactive
37 | CC1(c2ccc(OCC(N)=O)cc2)NC(=O)NC1=O (stereo unspecified) | inactive
38 | CC(=O)N1CCCC1(C(=O)O)c1ccccc1 (stereo unspecified) | inactive
39 | C=CC[C@@H](CC(=O)N[C@H](CO)Cc1ccccc1)C(=O)N[C@@H](COC(=O)[C@@H](CC=C)CC(=O)OC(C)(C)C)Cc1ccccc1 | inactive
40 | COC(=O)Cc1csc(Nc2ccccc2Cl)n1 | inconclusive: 23.1 µM [activator, partial curve, poor fit]
41 | Cc1ccc(CC2C(=O)N(c3cc(Cl)ccn3)C(=O)C2C)cc1 (stereo unspecified) | inactive
42 | CC(C)c1ccc(NC(=O)C(=O)c2cn(CC(=O)N3CCCCC3)c3ccccc23)cc1 | inactive
43 | Brc1ccc(C2=Nc3ccccc3C(c3ccncc3)=NN2)cc1 | inactive
44 | O=C(CSCCO)Nc1ccc(C2CCCCC2)cc1 | inconclusive: 18.4 µM [activator, single point]
45 | CN(C)/C=N/c1ncc(C(=O)c2ccc(Cl)cc2)s1 | active: 16.4 µM
46 | N/C(=N\OS(=O)(=O)c1ccccc1)c1ccccn1 | inactive
47 | COc1ccc([C@H]2CC(=O)C=C(c3ccc(C)c(F)c3)C2)cc1 | inactive
48 | COc1ccc2cc(-c3cc(C(=O)O)c4ccccc4n3)ccc2c1 | inconclusive: 0.82 µM [activator, partial curve, poor fit]
49 | Cc1cc(C(=O)Nc2ccc(Cl)cc2)c(C)n1-c1ccccc1 | inconclusive: 0.116 µM [activator, full curve]
50 | C/C=C/c1ccc(OCCn2nnc3ccccc32)c(OC)c1 | inconclusive: 18.3 µM [activator, single point]
51 | O=C(O)c1cc(N/N=C/C(Cl)=C/c2ccccc2)ccc1Cl | inconclusive: 0.73 µM [activator, partial curve, poor fit]
